# Experimental data published in the antibiotic and cytotoxicity screens of Wong et al. (2023).
# The list shows a part of the results.
# What was measured:
# HSkMC = human skeletal muscle cells; experiment: cytotoxicity call (relative viability < 0.9); conditions: 10 µM
# HepG2 = experiment: cytotoxicity call (relative viability < 0.9); conditions: 10 µM
# S. aureus RN4220 = experiment: growth inhibition call (relative growth <= 0.2); conditions: 50 µM
SMILES,cytotoxicity call (HSkMC),cytotoxicity call (HepG2),growth inhibition call (S. aureus RN4220)
C[C@H]1CN([C@@H](C)CO)C(=O)c2cc(-c3cccc(C(=O)N(C)C)c3)cnc2O[C@@H]1CN(C)C(=O)Cc1ccccn1,inactive,inactive,inactive
Cc1cc(=O)n(CNC(=O)c2ccco2)cn1,inactive,inactive,inactive
O=C(C[C@@H]1CC[C@H]2[C@@H](COC[C@@H](O)CN2C(=O)c2ccc3c(c2)OCO3)O1)NCCN1CCCC1,inactive,inactive,inactive
C[C@H]1CN([C@@H](C)CO)C(=O)CCCn2nncc2CO[C@@H]1CN(C)C(=O)Nc1cccc(C(F)(F)F)c1,inactive,inactive,inactive
C[C@@H]1CN([C@@H](C)CO)C(=O)c2cccc(N(C)C)c2O[C@H]1CN(C)S(=O)(=O)c1ccc(Cl)cc1,inactive,inactive,inactive
Cc1cc(C)c2cc3c(nc2c1)NCC3,inactive,inactive,inactive
C[C@@H]1CN([C@@H](C)CO)S(=O)(=O)c2ccc(C#Cc3ccccc3)cc2O[C@@H]1CN(C)C(=O)Cc1ccccn1,inactive,inactive,inactive
CC(C)c1c(O)c(-c2cc3c(c(C(C)C)c2O)CCC2C(C)(C)CCCC32C)cc2c1CCC1C(C)(C)CCCC21C (configuration not stated),inactive,inactive,inactive
C[C@@H]1CN([C@@H](C)CO)C(=O)c2cc(NC(=O)CCC(F)(F)F)ccc2O[C@@H]1CN(C)Cc1ccc(Cl)c(Cl)c1,inactive,inactive,inactive
C[C@@H]1CN([C@@H](C)CO)C(=O)c2cc(NC(=O)c3ccncc3)ccc2O[C@@H]1CN(C)S(=O)(=O)c1ccccc1,inactive,inactive,inactive
Cc1noc(C)c1NC(=O)Nc1cccc2c1O[C@@H](CN(C)S(=O)(=O)c1cn(C)cn1)[C@@H](C)CN([C@H](C)CO)C2=O,inactive,inactive,inactive
O=C(C[C@H]1CC[C@@H]2[C@H](COC[C@H](O)CN2S(=O)(=O)c2ccccc2)O1)N1CCc2ccccc2C1,inactive,inactive,inactive
CCc1nc2ccc(C(=O)N3CCN(C(=O)c4ccco4)CC3)cn2c1N(C=O)Cc1ccc(OC)cc1,inactive,inactive,inactive
C[C@H]1CCCCO[C@H](CN(C)CC2CCCCC2)[C@@H](C)CN([C@@H](C)CO)C(=O)c2cc(NC(=O)NC3CCCCC3)ccc2O1,inactive,active,inactive
NS(=O)(=O)c1cc2c(cc1Cl)N=C(CSCc1ccccc1)NS2(=O)=O,inactive,inactive,inactive
C[C@@H]1CCCCO[C@H](CN(C)C(=O)Nc2cccc3ccccc23)[C@@H](C)CN([C@H](C)CO)C(=O)c2cc(NS(=O)(=O)c3ccc(F)cc3)ccc2O1,inactive,active,inactive
NC[C@H](c1ccccc1)N1CCOCC1,inactive,inactive,inactive
O=c1cc(C(F)(F)F)[nH]c(=O)[nH]1,inactive,inactive,inactive
C[C@H](CO)N1C[C@H](C)[C@H](CN(C)Cc2ccccc2F)Oc2cc(C#CC3CC3)ccc2S1(=O)=O,inactive,inactive,inactive
O=C1N(Cc2ccccc2)c2ccccc2[C@@H]2OC(c3ccc(OCCCO)cc3)=N[C@]12CCS(=O)(=O)c1ccccc1,inactive,inactive,inactive
Cc1ccc(S(=O)(=O)Nc2cccc3c2O[C@H](CN(C)S(=O)(=O)c2c(C)noc2C)[C@H](C)CN([C@H](C)CO)C3=O)cc1,inactive,inactive,inactive
C[C@H](CO)N1C[C@H](C)[C@H](CN(C)C(=O)Nc2ccccc2C(F)(F)F)OCc2cnnn2CCCC1=O,inactive,inactive,inactive
C[C@@H]1CN([C@@H](C)CO)C(=O)Cc2cc(NS(=O)(=O)c3ccccc3)ccc2O[C@@H]1CN(C)S(=O)(=O)c1ccc(F)cc1,inactive,inactive,inactive
C=CCOC(=O)[C@H]1[C@@H]2C(=O)O[C@@H](c3ccccc3)[C@@H](c3ccccc3)N2[C@@H](c2ccc(OCCOC(=O)[C@H]3C[C@H]4C(=O)N[C@@H](CCCCNC(C)=O)C(=O)N4[C@H]3c3ccc(O)cc3)cc2)[C@]12C(=O)Nc1ccccc12,inactive,inactive,inactive
C[C@@H]1CN([C@H](C)CO)C(=O)CCCn2nncc2CO[C@H]1CN(C)S(=O)(=O)c1ccc(Oc2ccccc2)nc1,inactive,inactive,inactive
COc1ccc(NC(=O)N(C)C[C@H]2OCCCC[C@@H](C)Oc3ccc(NS(=O)(=O)c4ccc(F)cc4)cc3C(=O)N([C@@H](C)CO)C[C@H]2C)cc1,inactive,inactive,inactive
COc1ccc2c3c([nH]c2c1)[C@H](CO)N(C[C@]13CCN(CC1)Cc1ccccc1)C(=O)CN1CCOCC1,inactive,active,inactive
O=C(N[C@@H](c1ccccc1)c1ccc2ccccc2n1)C1CCN(CCOc2ccc(Cl)cc2)CC1,inactive,inactive,active
C[C@@H]1CN([C@H](C)CO)S(=O)(=O)c2ccc(C#CC3(O)CCCC3)cc2O[C@H]1CN(C)C(=O)Nc1cccc(F)c1,inactive,inactive,inactive
